Experimental data published in PubChem BioAssay AID624417 (National Center for Advancing Translational Sciences (NCATS), 2012).
The campaign covered roughly 410,000 compounds. About 6,400 (1.6%) were called active. The shares of active, inactive and inconclusive entries below differ from those in the screen. Calls come from the whole dose curve; as a rule, active = well fitted inhibition curve with a large enough effect; inconclusive = small, poorly fitted or top-dose-only effect; inactive = no such curve, though single readings can be large or run the other way. A potency beside an inconclusive call is a rough fit, not a confirmed value.

These compounds were tested against Glucagon-like peptide 1 receptor (Homo sapiens) (UniProt P43220) (assay: qHTS of GLP-1 Receptor Inverse Agonists (Inhibition Mode)). Conditions: HEK293 GLP-1R CRE-luciferase, luminescence, 24 h, GLP-1R form is constitutively active; activity change, negative = inhibition: at 38.3 µM (top of the series) unless noted.
Sequence of UniProt P43220 (P43220 whole entry, looked up): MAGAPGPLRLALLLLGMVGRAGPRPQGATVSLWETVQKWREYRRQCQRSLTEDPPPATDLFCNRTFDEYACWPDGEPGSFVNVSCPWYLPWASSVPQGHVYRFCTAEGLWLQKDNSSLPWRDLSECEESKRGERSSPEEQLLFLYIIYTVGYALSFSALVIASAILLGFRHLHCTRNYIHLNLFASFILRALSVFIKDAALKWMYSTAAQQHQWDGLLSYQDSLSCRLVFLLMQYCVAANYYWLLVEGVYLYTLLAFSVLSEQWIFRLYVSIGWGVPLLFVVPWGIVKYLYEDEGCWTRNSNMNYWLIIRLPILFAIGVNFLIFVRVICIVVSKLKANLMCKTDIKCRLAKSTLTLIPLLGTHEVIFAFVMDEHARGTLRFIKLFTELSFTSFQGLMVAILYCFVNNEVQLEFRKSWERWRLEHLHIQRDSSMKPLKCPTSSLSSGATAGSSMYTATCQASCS
Description: The overall goal of this project was to develop a novel assay for discovering small molecule ligands for class B1 G protein-coupled receptors (GPCRs). Very few agonists (or inverse agonists in inhibition mode) with generally weak activity for this entire group of physiologically important receptors are known to date. To establish proof-of-principle that this critical bottleneck can be overcome with a suitable screening approach, our studies focused on the class B1 receptor for glucagon-like peptide-1 (GLP-1R), a potential therapeutic target for diabetes and neurodegenerative disease. The assay was developed using a cell-based functional readout. Toward this goal, stably transfected HEK293 cell clones were established that co-express (i) a cAMP-responsive luciferase reporter gene, and (ii) constitutively active GLP-1R that upon ligand interaction inhibit (inverse agonists) the luciferase activity. In addition, two control cell lines were developed: (i) one that express only the cAMP-responsive reporter gene to enable initial exclusion of GLP-1R independent effects of candidate probes; and (ii) one with the reported gene cloned with another constitutively active orphan receptor GPR119 to enable exclusion of GLP-1R independent inhibitor effects of candidate inverse agonists. To that end, this assay was optimized for 1536-well format and screened against the MLSMR. […] NIH Molecular Libraries Probe Production Network [MLPCN] NIH Chemical Genomics Center [NCGC] Grant: NS064851 PI Name: Martin Beinborn, Tufts Medical Center
Six ul of cell suspension (200 cells/uL in DMEM + 10% Nu serum + 1% pen-strep) is dispensed in a white solid 1536-well plate. The plates are incubated for 12 hours at 37 deg C at 5% CO2 followed by addition of 23 nL compounds. After 24 hr incubation at 37 deg C and 5% CO2, 3 uL of luciferase assay detection reagent is added. A luminescence read is obtained on the PerkinElmer Viewlux after 12 min incubation at room temperature.
% is set by controls: 0 for no effect and ±100 for the full control effect; potency is the fitted concentration of half-maximal effect; tags give direction and shape of the fitted curve.
Note: nearly all actives have a fitted effect of over 55% in size.

Potency, active:
COc1ccccc1N1CCN(C(=O)CSc2nc3ccccc3nc2Cc2ccccc2)CC1 11.2 µM
CNC(=O)c1c(NC(=O)c2ccc(S(=O)(=O)N3CCCc4ccccc43)cc2)sc2c1CCN(C)C2 4.47 µM

Potency, inconclusive:
OCC1CCCN(C(=S)Nc2ccc(Nc3ccccc3)cc2)C1 (stereo unspecified) 14.1 µM [inhibitor, single point]
CNC(=O)N(C1=NCC(C)(C)S1)c1ccc(F)c(Cl)c1 10 µM [inhibitor, single point]
CCc1ccc(-c2ccc3nnc(SCC(=O)NCC4CCCO4)n3n2)cc1 (stereo unspecified) 6.31 µM [inhibitor, partial curve, poor fit]
CCc1c(-c2ccccc2)nc2ccccc2c1C(=O)NCc1ccc(C)cc1 11.2 µM [inhibitor, partial curve, poor fit]
O=S(=O)(c1ccccc1)c1cnc(-c2ccccc2)nc1N1CCCCC1 10 µM [inhibitor, single point]
COc1ccc(CN(C)C(=O)CCC(=O)N2CCN(S(=O)(=O)c3ccc(Cl)cc3)CC2)c(OC)c1 1.26 µM [inhibitor, full curve]
Cc1cc(C)cc(NS(=O)(=O)c2ccc3[nH]cc(C(=O)NCc4ccccc4Cl)c(=O)c3c2)c1 10 µM [inhibitor, partial curve, poor fit]
COc1ccccc1NS(=O)(=O)c1cc(NC(C)=O)ccc1N1CCCCC1 31.6 µM [inhibitor, single point]
COc1ccc(CNC(=O)CN(C(=O)CCC(=O)Nc2ccccn2)c2cccc(C)c2C)cc1 7.08 µM [inhibitor, partial curve, poor fit]
COc1cc(NC(=O)Cn2c(=O)n(Cc3ccco3)c(=O)c3oc4ccccc4c32)cc(OC)c1 10 µM [inhibitor, single point]
COc1ccc2cc(CN(CC3CCCO3)C(=S)Nc3ccccc3)c(=O)[nH]c2c1 (stereo unspecified) 3.55 µM [inhibitor, full curve]
CCN(CC)C(=O)c1c(-c2ccccc2)oc2ccc(O)cc12 11.2 µM [inhibitor, partial curve, poor fit]
CC(=O)c1ccc(N2C(=O)N(CC(=O)c3ccc(C)cc3)c3ccccc3S2(=O)=O)cc1 11.2 µM [inhibitor, partial curve, poor fit]
CS/C(N)=N/N=C/c1cc(Br)cc(Br)c1O 14.1 µM [inhibitor, partial curve, poor fit]
CCC1(c2ccccc2)NC(=O)N(CC(=O)NCC2COc3ccccc3O2)C1=O (stereo unspecified) 8.91 µM [inhibitor, partial curve, poor fit]
CCCCOc1ccc(N(CC(=O)NC(C)(C)CC)C(=O)CCC(=O)Nc2ccccn2)cc1 28.2 µM [inhibitor, single point]
CCN(c1cccc(C)c1)S(=O)(=O)c1nnc(NC(=O)c2ccccc2Cl)s1 14.1 µM [inhibitor, single point]
Cc1c(C(=O)N2CCCCC2)oc2ccccc12 10 µM [inhibitor, partial curve, poor fit]
CN(Cc1ccccc1)S(=O)(=O)c1ccc(NC(=S)NC(=O)C(C)(C)C)cc1 2.24 µM [inhibitor, partial curve, poor fit]
COc1ccc(-c2nc(NC(=O)c3ccccc3)sc2-c2ccc([N+](=O)[O-])cc2)cc1 12.6 µM [inhibitor, partial curve, poor fit]
N#Cc1c(-c2ccc(Cl)cc2)n(O)c2ccccc12 5.01 µM [inhibitor, full curve, poor fit]
CCCN(CCC)S(=O)(=O)c1ccc2c(c1)N(CC(=O)NC(C)c1ccccc1)C(=O)CS2 (stereo unspecified) 10 µM [inhibitor, single point]
COc1ccc(CNC(=O)c2cc(Nc3ccc(C)cc3C)nc3ccccc23)cc1 14.1 µM [inhibitor, partial curve, poor fit]
CCOC(=O)C1C(=O)C=C(c2ccc([N+](=O)[O-])cc2)CC1c1ccccc1 (stereo unspecified) 28.2 µM [inhibitor, single point]
O=C(NCC1CC1)c1onc(CSc2nc3ccccc3[nH]2)c1C(=O)NCC1CC1 12.6 µM [inhibitor, partial curve, poor fit]
Cc1ccc(C2(c3noc(CN(C)CC4CCCCO4)n3)CCCC2)cc1 (stereo unspecified) 12.6 µM [inhibitor, partial curve, poor fit]
Cc1ccc(NC(=O)C(=O)c2cc(C)n(-c3ccc(F)cc3)c2C)cc1C 28.2 µM [inhibitor, single point]
O=C(Cc1ccccc1)Nc1ccc(S(=O)(=O)N2CCCC2)cc1 12.6 µM [inhibitor, partial curve, poor fit]
CCOC(=O)c1c(NC(=O)C2COc3ccccc3O2)sc2c1CCN(Cc1ccccc1)C2 (stereo unspecified) 2 µM [inhibitor, partial curve, poor fit]
CCOc1ccc(NC(=O)c2oc3ccccc3c2NC(=O)c2c(F)cccc2F)cc1 2.82 µM [inhibitor, partial curve, poor fit]
O=C(NCC(c1cccs1)N1CCOCC1)c1ccc(Cl)cc1 (stereo unspecified) 14.1 µM [inhibitor, single point]
CC(=O)Nc1ccc(Oc2cc(C#N)c(C#N)cc2N2CCCCCC2)cc1 28.2 µM [inhibitor, single point]
O=C1Cc2ccccc2Sc2ccc(O)cc21 28.2 µM [inhibitor, single point]
C=CCn1c(SCC(=O)c2ccc(Cl)cc2)nnc1-c1ccc2c(c1)OCO2 12.6 µM [inhibitor, single point]
CCOC(=O)CNCCC(=O)c1ccc(Br)cc1 8.91 µM [inhibitor, single point]
CC(=O)Nc1cccc(NC(=O)c2cccc(-c3ccc(O)cc3)c2)c1 22.4 µM [inhibitor, single point]
Cc1onc(C(=O)N2CCN(C(c3ccccc3)c3ccccc3)CC2)c1[N+](=O)[O-] 11.2 µM [inhibitor, partial curve, poor fit]
COCC1CCCN(C(=O)c2cc(COc3cncc(Cl)c3)on2)C1 (stereo unspecified) 31.6 µM [inhibitor, single point]
S=C(NCc1ccccc1)Nc1ccc2ccccc2c1 28.2 µM [inhibitor, single point]
O=C(CN1CCN(c2cccc(Cl)c2)CC1)c1ccc(O)cc1O 3.16 µM [inhibitor, partial curve]
Cc1cccn2c(=O)c(C(=O)NCCc3ccccc3)c(O)nc12 6.31 µM [inhibitor, partial curve, poor fit]
CN(C)c1ccc(C2(c3ccc(N(C)C)cc3)OC(=O)c3cc(N)ccc32)cc1 17.8 µM [inhibitor, single point]
COc1ccccc1CC(Cc1nc2ccccc2[nH]1)c1nc2ccccc2[nH]1 (stereo unspecified) 28.2 µM [inhibitor, single point]
CCCCCNC(=O)c1ccc2c(=O)n(CCCN3CCCC3=O)c(=S)[nH]c2c1 28.2 µM [inhibitor, partial curve, poor fit]
CCCCCCSc1ccc([C@H]2N[C@@](C)(C(=O)OC)[C@H]3C(=O)N(C)C(=O)[C@@H]23)cc1 11.2 µM [inhibitor, partial curve, poor fit]
CN(CC(=O)Nc1ccccc1Br)CC(=O)Nc1ccccc1-c1ccccc1 7.94 µM [inhibitor, partial curve]
COc1ccc(CN(CCNC(=O)CCCCC(=O)NCCN(Cc2ccc(OC)cc2)C(C)C)C(C)C)cc1 28.2 µM [inhibitor, partial curve, poor fit]

Activity change, negative = inhibition, inactive:
Cn1cnc(S(=O)(=O)N2CCC(C(=O)N3CCN(c4ccccc4F)CC3)CC2)c1 6.4%
CCc1cc2c(=O)n(-c3ccccc3)c(SCC(N)=O)nc2s1 1.15%
O=C(NNC(=S)NC(=O)c1ccccc1[N+](=O)[O-])c1ccccc1[N+](=O)[O-] 1.29%
Cc1ccc2nc(-c3ccc(NC(=O)COc4ccccc4)cc3)sc2c1 -17.4%
Cc1ccc(CSC2=Nc3ccccc3C3=NC(CC(=O)NC4CCCCC4)C(=O)N23)cc1 (stereo unspecified) 4.82%
N#CC1=C(N)C(C#N)(C#N)[C@H](c2cccnc2)[C@H]2CN(C(=O)OCc3ccccc3)CC=C12 18.4%
S=C(NCc1ccccc1)N1CCN(Cc2ccc3c(c2)OCO3)CC1 -34.1%
CN(CC(=O)Nc1ccc(N2CCOCC2)cc1)CC(=O)Nc1ccc(Cl)cc1[N+](=O)[O-] 159%
O=[N+]([O-])c1cccc(/C=N/Nc2nc(N3CCOCC3)nc(N3CCOCC3)n2)c1 -5.92%
Cc1ccc(S(=O)(=O)N2CCC(C(=O)NCCc3ccc(S(N)(=O)=O)cc3)CC2)cc1 3.13%
COc1ccc(C(=O)OCC(N)=O)cc1[N+](=O)[O-] 20.8%
NC(=O)CC[C@@H]1NC(=O)[C@@H]2CCCN2C(=O)c2cc([N+](=O)[O-])cc(I)c2NCCC[C@@H](C(N)=O)NC1=O 27.1%
